Assay results from article PMC7819943, “Rice protein-binding microarrays: a tool to detect cis-acting elements near promoter regions in rice”.
Some of the results follow.

The sequences below were run against T1, OsWOX13 (Oryza sativa, UniProt Q5QMM3 1-267) (assay: protein-binding microarray (RPBM); PBS, 2% BSA, 51.3 ng/ul salmon testes DNA, 50 uM zinc acetate, 200 nM TF, 25 C, 1 h; high values mean tight binding). Conditions: protein: recombinant; tags: N-terminal polyhistidine and DsRed monomer fusion (pET32a); label: CyDye5-dUTP incorporated in the synthesized complementary strand; 3' TTTTT single-stranded linker to array surface; dsDNA, one strand shown.
T1 sequence: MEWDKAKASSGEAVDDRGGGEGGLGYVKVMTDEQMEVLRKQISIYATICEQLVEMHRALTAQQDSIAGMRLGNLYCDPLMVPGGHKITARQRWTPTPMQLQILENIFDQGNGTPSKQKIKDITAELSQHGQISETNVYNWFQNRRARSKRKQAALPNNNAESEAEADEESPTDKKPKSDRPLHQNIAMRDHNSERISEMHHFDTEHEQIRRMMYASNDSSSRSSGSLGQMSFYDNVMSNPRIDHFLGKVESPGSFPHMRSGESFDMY
Method in brief: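 Polyhistidine-tagged DsRed fusions of transcription factors, joined at the N-terminus, were expressed in E. coli BL21-CodonPlus and isolated on Ni–NTA. They were incubated at 200 nM for 1 h at 25 °C on a custom Agilent array, double-stranded and BSA-blocked, in PBS with 2% BSA, salmon testes DNA and 50 µM zinc acetate. The binding signal is per-feature fluorescence intensity (arbitrary units) read on an Axon 4000B scanner after washing.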
For “AGTCTGTAATATAATTTAATCTAGAATTTAATAAAATGGACGGAGTCACCTAGTGCAG”, the binding signal was 10300 fluorescence intensity (a.u.).
In the case of “AATAAATCATTACTGTATGATTAACCAAGTATTAATTATTCGGAGTCACCTAGTGCAG”, the binding signal is reported as 14200 fluorescence intensity (a.u.).
In the case of “GATTAATTTAGCTCTGCCTCCAGAAATTTCATCTCCTCTTCGGAGTCACCTAGTGCAG”, the binding signal is reported as 8010 fluorescence intensity (a.u.).
With “TTACTGATAGACCTCATTTGAATGCAAGACAATGGTAGGCCGGAGTCACCTAGTGCAG” the binding signal was 6280 fluorescence intensity (a.u.).
In the case of “ACTCCTTTTCCAACCTGTTAATGGGCCTGACTGGGCCTGACGGAGTCACCTAGTGCAG”, the binding signal is reported as 3190 fluorescence intensity (a.u.).
“ATGATTGTGAGTGGACCAAATTATACTTACCGAGCATTAACGGAGTCACCTAGTGCAG” was tested, and the binding signal was 28600 fluorescence intensity (a.u.).
“GTCATTGTTGTGAATTGACTGCTGCTGTTTACTTACAGGACGGAGTCACCTAGTGCAG” was tested, and the binding signal was 3520 fluorescence intensity (a.u.).
“ATTAAGTCAAATACTCTAATTAACCATAAATATAAGCACTCGGAGTCACCTAGTGCAG” was tested, and the binding signal was 3800 fluorescence intensity (a.u.).
For “CCTGTTGATTGGTTAGCCCAGCCCATGATGTAGCCCATGACGGAGTCACCTAGTGCAG”, the binding signal was 38200 fluorescence intensity (a.u.).
For “ATATAAATGTAAATTTTAAATTTATTTTATCTAATACTTACGGAGTCACCTAGTGCAG”, the binding signal was 9130 fluorescence intensity (a.u.).
With “TACTAGATTGAGGTGGTTAGTGACTCTAGGATCACCGCAACGGAGTCACCTAGTGCAG” the binding signal was 18000 fluorescence intensity (a.u.).
In the case of “ATGTCCCAATTAATTTAACGGTTTCTACTGTAAATTAATGCGGAGTCACCTAGTGCAG”, the binding signal is reported as 15200 fluorescence intensity (a.u.).
In the case of “ACATGGGTTAATTACTTCCTTGTCTAGCCATACGGGGAAACGGAGTCACCTAGTGCAG”, the binding signal is reported as 4360 fluorescence intensity (a.u.).
“CTGCAATTACCAGCATAAATCAATCAATCGGAAAAGCAGACGGAGTCACCTAGTGCAG” was tested, and the binding signal was 30500 fluorescence intensity (a.u.).
In the case of “GTGCTTTGTACTGATCTGATTGCCTTCGCCTCATCATAATCGGAGTCACCTAGTGCAG”, the binding signal is reported as 5280 fluorescence intensity (a.u.).
For “ATCACTGTATACGAATAAATTGATTACTTGTAATTGATAACGGAGTCACCTAGTGCAG”, the binding signal was 14300 fluorescence intensity (a.u.).
For “TAATGATTAGAGACTATGTTGTCTCTAACTGTTGTAAGATCGGAGTCACCTAGTGCAG”, the binding signal was 26000 fluorescence intensity (a.u.).
In the case of “CAAATCAGATGTGGACTTGATTTAGTCTTTTAATTTGTTACGGAGTCACCTAGTGCAG”, the binding signal is reported as 6510 fluorescence intensity (a.u.).
“GAAAGAGTAATTACATCTAGAGACTGAATGCCTCATTGCCCGGAGTCACCTAGTGCAG” was tested, and the binding signal was 9180 fluorescence intensity (a.u.).
“CCTAATTGCATGATAGATGACAGTTAAGGCAGCCCAGCCACGGAGTCACCTAGTGCAG” was tested, and the binding signal was 41100 fluorescence intensity (a.u.).
With “CTGCCACTCAATCAAATCAACCAGATAATATTTCCAAACCCGGAGTCACCTAGTGCAG” the binding signal was 14900 fluorescence intensity (a.u.).
For “TTTATGTCAAACGTTTGACAGTCCATCTTATTTACAAATTCGGAGTCACCTAGTGCAG”, the binding signal was 3210 fluorescence intensity (a.u.).
With “GGCTTAATAGGTAACGTTTTCGAAGGATAGAGACAAGTTGCGGAGTCACCTAGTGCAG” the binding signal was 9910 fluorescence intensity (a.u.).
With “TATTCAATATTAGATTTAAATGTAACTATTTTAGTATTGTCGGAGTCACCTAGTGCAG” the binding signal was 3630 fluorescence intensity (a.u.).
With “GTTAAGTCAAGTTTCCAATCAGCAGAATGTTCCCAGTGGTCGGAGTCACCTAGTGCAG” the binding signal was 8800 fluorescence intensity (a.u.).
With “TCTGATTGTGAGTCTACGTAGACAAGTATGCAACTAGCACCGGAGTCACCTAGTGCAG” the binding signal was 22300 fluorescence intensity (a.u.).
In the case of “GGAGATTGACACGTTGGTCTACGTGCCTATGCGTGTGTTCCGGAGTCACCTAGTGCAG”, the binding signal is reported as 55600 fluorescence intensity (a.u.).
In the case of “CAGCAAGCATGATTGAGAATAGTAAAGGGATGACACGGCACGGAGTCACCTAGTGCAG”, the binding signal is reported as 19900 fluorescence intensity (a.u.).
For “CTTACTTAATTGCAGCGAGATAATTTAGAATTGATGCCTTCGGAGTCACCTAGTGCAG”, the binding signal was 38100 fluorescence intensity (a.u.).
With “ACCTTGACGAAATCATTTGTCTTCTTTTGGAGAACTTTTGCGGAGTCACCTAGTGCAG” the binding signal was 7260 fluorescence intensity (a.u.).
In the case of “GTAATCACGTAATCACGCCCAGCATCCAGAACGTTCCTCCCGGAGTCACCTAGTGCAG”, the binding signal is reported as 6780 fluorescence intensity (a.u.).
With “CCCTTGATTTACTTGATAATTTGTTATAGGTCCCTATCCCCGGAGTCACCTAGTGCAG” the binding signal was 53400 fluorescence intensity (a.u.).
In the case of “AATTTACCCTCATTAATTCAATTTAGCTCTGATGTGCATGCGGAGTCACCTAGTGCAG”, the binding signal is reported as 3240 fluorescence intensity (a.u.).
“GGTAGATATCAATCACCCTCAATGCAAAACCAATCTCTTTCGGAGTCACCTAGTGCAG” was tested, and the binding signal was 21500 fluorescence intensity (a.u.).
“TACTATTAATCAATCACATATAATTAACAATTAGTGTGATCGGAGTCACCTAGTGCAG” was tested, and the binding signal was 41200 fluorescence intensity (a.u.).
In the case of “GCACCCAAGTATAATTAACAAATTTATATTTCCTTTATATCGGAGTCACCTAGTGCAG”, the binding signal is reported as 5070 fluorescence intensity (a.u.).
“ATCAAATTGCCAAGTAAGCGCCACGTTATTACCAAGACTGCGGAGTCACCTAGTGCAG” was tested, and the binding signal was 6970 fluorescence intensity (a.u.).
For “CTAATTTATTCCCTGCAACATTCCATTCCGTTAACTTGCACGGAGTCACCTAGTGCAG”, the binding signal was 3610 fluorescence intensity (a.u.).
With “TATTGTATTGATTGAGGTGATTCATGATAACCATGAAATACGGAGTCACCTAGTGCAG” the binding signal was 12400 fluorescence intensity (a.u.).
“CTTGACTGGGAGTGTCAGATCAAAGACGATGGATGATTGCCGGAGTCACCTAGTGCAG” was tested, and the binding signal was 24000 fluorescence intensity (a.u.).
“TGTTGACAGAAAATCCCACCTCTCATCTTTCAAAATTTAGCGGAGTCACCTAGTGCAG” was tested, and the binding signal was 8540 fluorescence intensity (a.u.).
“TTGATTGCCAGCTGCACTCTGCATCCCAAGAAGACCTTGTCGGAGTCACCTAGTGCAG” was tested, and the binding signal was 42400 fluorescence intensity (a.u.).
